# Among all 310,000 compounds or so, about 2,200 (0.71%) showed an effect of 50% or more. The effect is printed as a negative number. The list shows a part of the results.
# Molecular target: human ether-à-go-go-related gene (hERG) potassium channel (human, UniProt Q12809)
# Test: primary screen, population patch clamp on CHO cells stably expressing hERG
# human ether-à-go-go-related gene (hERG) potassium channel, sequence (Q12809 whole entry, looked up): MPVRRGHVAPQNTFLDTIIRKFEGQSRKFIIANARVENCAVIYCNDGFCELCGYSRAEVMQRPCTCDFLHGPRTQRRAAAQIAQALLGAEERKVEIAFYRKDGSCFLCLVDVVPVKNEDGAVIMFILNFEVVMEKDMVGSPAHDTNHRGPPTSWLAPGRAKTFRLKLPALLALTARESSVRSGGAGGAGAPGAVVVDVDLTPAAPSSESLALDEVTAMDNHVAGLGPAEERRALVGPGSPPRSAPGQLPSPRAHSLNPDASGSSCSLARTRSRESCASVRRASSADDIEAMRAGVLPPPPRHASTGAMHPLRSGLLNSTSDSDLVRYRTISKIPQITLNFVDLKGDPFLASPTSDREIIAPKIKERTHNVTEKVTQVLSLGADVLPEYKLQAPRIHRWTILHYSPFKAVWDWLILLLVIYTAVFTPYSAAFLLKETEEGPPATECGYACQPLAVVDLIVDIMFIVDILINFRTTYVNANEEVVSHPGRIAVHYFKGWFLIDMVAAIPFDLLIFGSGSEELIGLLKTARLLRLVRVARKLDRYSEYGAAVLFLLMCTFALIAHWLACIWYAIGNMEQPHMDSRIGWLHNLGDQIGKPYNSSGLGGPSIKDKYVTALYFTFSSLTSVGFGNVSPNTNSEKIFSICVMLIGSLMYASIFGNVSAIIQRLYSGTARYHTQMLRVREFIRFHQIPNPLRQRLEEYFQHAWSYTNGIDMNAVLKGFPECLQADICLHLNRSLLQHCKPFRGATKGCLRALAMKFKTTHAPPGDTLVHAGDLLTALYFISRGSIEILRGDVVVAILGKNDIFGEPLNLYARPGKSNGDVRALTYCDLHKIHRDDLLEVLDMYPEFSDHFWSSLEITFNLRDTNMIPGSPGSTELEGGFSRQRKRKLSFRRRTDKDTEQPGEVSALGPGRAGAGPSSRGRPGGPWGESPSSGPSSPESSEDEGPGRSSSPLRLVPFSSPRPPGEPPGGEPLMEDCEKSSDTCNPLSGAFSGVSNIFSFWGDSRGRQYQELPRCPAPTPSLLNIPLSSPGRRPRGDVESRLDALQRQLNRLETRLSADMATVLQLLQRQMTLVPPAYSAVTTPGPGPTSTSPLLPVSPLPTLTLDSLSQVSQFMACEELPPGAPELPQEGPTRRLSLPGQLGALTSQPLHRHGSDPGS
row,SMILES,"hERG current change (%, negative = inhibition) at 1uM [%]"
1,CCn1cc(S(=O)(=O)N2CCc3ccccc3C2)cn1,16
2,O=C(CCNc1ccc(F)cc1)c1cc2ccccc2o1,9.72
3,Cc1ccsc1/C=N\NC(=O)CCc1c(C)n[nH]c1C,2.2
4,Cc1cc(C(=O)Nc2ccccc2C(=O)O)ccc1NC(=O)COc1cccc(C)c1C,7.97
5,CCOc1cc2c(cc1/C=C/c1noc(C)c1[N+](=O)[O-])OC(C)C2 (stereo not drawn),15
6,Cc1ccc(CNC(=O)C2CCN(S(=O)(=O)c3c(C)noc3/C=C/N(C)C)CC2)cc1,12.8
7,O=C(O)c1ccccc1OCc1nc2ccccc2s1,9.79
8,C=CCN1C(=O)C(C)S/C1=N\S(=O)(=O)c1ccc(Cl)cc1 (stereo not drawn),9.59
9,COc1ccc(C2CC(c3ccccc3)=NN2C(=O)COC(=O)C2CC2)cc1 (stereo not drawn),3
10,O=C(Nc1nc(-c2ccccc2)cs1)C1CCCCN1S(=O)(=O)c1ccccc1 (stereo not drawn),7.14
11,COc1cc(C)c(/C=C/C(C)=C/C=C/C(C)=C/C(=O)O)c(C)c1C,10.8
12,COC(=O)c1ccc(CNC(=O)COC(=O)COc2ccc(OC)cc2)cc1,19.6
13,Cc1nnc(SCCn2c(N3CCC(Cc4ccccc4)CC3)nc3c2c(=O)[nH]c(=O)n3C)s1,1.88
14,COc1ccc(C(=O)O)cc1S(=O)(=O)N(C)C,17
15,CC(C(=O)N1CCc2ccccc21)N1CCN(Cc2ccc(Cl)cc2)CC1 (stereo not drawn),-30.9
16,O=C(COC(=O)c1c(Cl)cccc1Cl)Nc1cc(Cl)ccc1Oc1ccccc1,1.1
17,Cc1cc(C)nc(SC(C)CNS(=O)(=O)c2ccccc2)n1 (stereo not drawn),10.2
18,CCCCn1c(N)c(N(Cc2ccccc2OC)C(=O)COc2ccccc2OC)c(=O)[nH]c1=O,4.15
19,Cc1ccc(S(=O)(=O)N2CCN(C(=O)c3ccccc3OCc3c(C)noc3C)CC2)cc1,2.96
20,Cc1ccc(NC(=O)COC(=O)c2ccc3c(c2)OCCO3)cc1S(=O)(=O)N1CCOCC1,14.5
21,CN(Cc1ccco1)c1ncnc2ccc(-c3ccoc3)cc12,7.88

row,SMILES,"hERG current change (%, negative = inhibition) at 1uM [%]"
1,COc1cccc(C(=O)O/N=C2\CCS(=O)(=O)c3sccc32)c1,11.5
2,Nc1ccc2nc(-c3ccccn3)[nH]c2c1,10.9
3,O=C1N(Cc2cccnc2)C[C@@H]2C[C@@H](c3cccc(C(F)(F)F)c3)N3CCC[C@@]123,4.65
4,COc1cc(NC(=S)NC2CC2)c(OC)cc1Cl,9.02
5,CC(C)c1csc(CN2CCN(CCc3ccccc3)C(CCO)C2)n1 (stereo not drawn),-23.1
6,Cc1ccc2[nH]c3c(=O)n(CCc4cnc[nH]4)cnc3c2c1,5.32
7,C#CCOCCOCCOCCNc1nc(N2CCN(C(=O)[C@H](CCC(=O)O)n3cc(C(N)CC(C)C)nn3)CC2)nc(N2CCN(C(=O)[C@H](Cc3ccc(O)cc3)n3cc(C(N)[C@H](C)CC)nn3)CC2)n1.Cl (stereo partly drawn),-14.2
8,CCOC(=O)c1c(C)[nH]c(C)c1C(=O)COC(=O)c1ccc([N+](=O)[O-])s1,-2.06
9,O=C1CC(c2ccccc2)Cc2nc(NCc3ccco3)ncc21 (stereo not drawn),-12.5
10,CCC(Oc1ccccc1)C(=O)N(C)CC(=O)N(CC(C)C)c1c(N)n(CC(C)C)c(=O)[nH]c1=O (stereo not drawn),7.85
11,CCC(=O)N1CCN=C1SCc1cccc(C(F)(F)F)c1,5.92
12,O=C(NCC1CCCO1)c1cccc(Br)c1 (stereo not drawn),5.03
13,O=C(O)c1cc(Br)ccc1NN=C1CCCCC1,2.9
14,O=C(NCc1cccnc1)NC(C(F)(F)F)C(F)(F)F,2.02
15,Cl.O=C(OCCN1CCOCC1)c1ccc(OCCN2CCOCC2)cc1,9.88
16,CCOc1ccc(NC(=O)CN(C)C(=O)CN2C(=O)C3CCCCC3C2=O)cc1OCC (stereo not drawn),15.3
17,COc1ccc(-n2nc(C(=O)NCC(=O)N(C)Cc3ccccc3)c3ccccc3c2=O)cc1OC,13.2
18,CC(=O)Nc1ccc(NC(=O)[C@@H](NC(=O)N2C[C@H]3C[C@@H](C2)c2cccc(=O)n2C3)C(C)C)cc1,4.56
19,COc1ccccc1NC(=O)c1ccc(NC(=O)c2ccc(=O)[nH]c2)cc1,14.3
20,O=C(CN(C(=O)c1ccccc1Cl)N1C(=O)CCCC1=O)c1ccc(Cl)cc1,13.2
21,N=c1oc2ccccc2cc1C(=O)NC1CCCCCC1,10.9

row,SMILES,"hERG current change (%, negative = inhibition) at 1uM [%]"
1,CN(C)CCCCCN(C)Cc1cc2ccccc2o1.Cl,16.2
2,Cc1ccc(/C=C/c2nc3ccccc3s2)s1,4.52
3,CCC(C)(NC(=O)c1ccccn1)C(=O)NC1CCCCC1 (stereo not drawn),14.3
4,Cc1ccccc1N(C(=O)c1ccccn1)C(C(=O)NCc1ccccc1)c1cccnc1 (stereo not drawn),11.3
5,O=C(CCSc1nc2ccccc2o1)Nc1ccccc1,14.8
6,CN1C(=O)c2cccc3c(S(=O)(=O)Nc4ccccn4)ccc1c23,5.11
7,CCCOc1c(Br)cc(C2C3=C(CCCC3=O)N(C)C3=C2C(=O)CCC3)cc1OC,-1.18
8,CCOc1ccc(OCc2cccc(C(=O)N3CCCC3)c2)cc1,10.5
9,COC(c1ccc(Cl)cc1)(c1ccc(Cl)cc1)C(Oc1nccc(C)n1)C(=O)O (stereo not drawn),15.4
10,COc1ccc(OC)c(NC(=O)c2ccc(CN(c3cc(Cl)ccc3C)S(=O)(=O)c3ccccc3)cc2)c1,5.74
11,CCOC(=O)N1CCN(C(=O)C2CCCN(S(=O)(=O)c3cc(C)ccc3OC)C2)CC1 (stereo not drawn),3.06
12,COc1ccc(C(O)P(=O)(OCc2ccccc2)c2ccc(N(C)C)cc2)cc1 (stereo not drawn),13.4
13,C/C(=N\NC(=S)NC1CCCCC1)c1cccs1,8.24
14,Clc1ccc(-c2nc3ncccn3c2Nc2ccc3c(c2)OCCO3)cc1,17
15,Cc1cc[n+](CC2OCc3ccccc3CO2)cc1.[Br-],7.93
16,O=C1CCc2cc(S(=O)(=O)N3CCN(c4ccccc4)CC3)cc3c2N1CCC3,2.05
17,Cc1cc(C)cc(NC(=O)CSc2nc3c(c(=O)[nH]2)CN(Cc2ccc(F)cc2)CC3)c1,1.69
18,COc1ccc(CNC(=O)C(NC(C)=O)C(=O)Nc2ccc(C(C)C)cc2)cc1 (stereo not drawn),19.9
19,COC(=O)c1c(C(=O)OC)c(-c2ccccc2)n2c1CS(=O)C2 (stereo not drawn),9.86
20,COc1cc2nc(N(C)C)nc(N)c2cc1OC.Cl,-6.59
21,O=C(c1cccc(S(=O)(=O)Nc2ccc(F)cc2)c1)N1CCC1,14.6

row,SMILES,"hERG current change (%, negative = inhibition) at 1uM [%]"
1,CCCCN(CC)C(=O)Cn1ncc2c3ccccc3n(CCC)c2c1=O,-2.29
2,CNC(=S)N/N=C/c1c2ccccc2c(Cl)c2ccccc12,15.9
3,O=C(NCc1ccccc1F)C(=O)NCC1OCCCN1S(=O)(=O)c1cccs1 (stereo not drawn),15
4,N/C(CSc1ccccn1)=N\OCc1c(Cl)cccc1Cl,11
5,O=S(=O)(NCc1nnc2ccccn12)c1ccc(Cl)cc1,15.5
6,N#Cc1cnc(Oc2ccc(Cl)cc2)nc1N,11.7
7,O=C(Cc1cccs1)N/N=C/c1ccccn1,12.6
8,CCNC(=O)C1CCCN1C(=O)C(CCCN=C(N)N)NC(=O)C(CC(C)C)NC(=O)C(Cc1cn(Cc2ccccc2)cn1)NC(=O)C(Cc1ccc(O)cc1)NC(=O)C(CO)NC(=O)C(Cc1c[nH]c2ccccc12)NC(=O)C(Cc1cnc[nH]1)NC(=O)C1CCC(=O)N1 (stereo not drawn),12.7
9,COc1ccc2c(c1)c(C(=O)N1CCN(C)CC1)c(C)n2-c1ccccc1,-5.59
10,O=C(NCCNC(=O)c1ccco1)c1cccc(F)c1,12.7
11,c1csc(-c2nc(CN3CCSCC3)cs2)c1,13
12,Cc1ccc2nc(-c3cccc(Br)c3)cc(C(=O)NCC3CCCO3)c2c1 (stereo not drawn),9.13
13,C/C(=N\N=C1\NC(=O)C(CC(=O)Nc2ccc(C)c(Cl)c2)S1)C(C)C (stereo not drawn),14.4
14,CCNC(=S)Nc1ccc(Oc2ccccc2)cc1,10.1
15,COCCCN1C(=O)c2ccccc2C1C(=O)NC1CCCCCC1 (stereo not drawn),2.08
16,COc1cccc(NC(=O)C(NCC2CCCCC2)c2ccccc2)c1.O=C(O)C(=O)O (stereo not drawn),11.8
17,COc1ccccc1Nc1nc(NCCC(C)C)nc(N)c1[N+](=O)[O-],14
18,CCOC(=O)c1ccc2c(c1)n(CCCS(=O)(=O)[O-])c(/C=C/c1ccc(Cl)cc1)[n+]2CC,-7.29
19,COCC1CCN(C(=O)C2CCC(=O)N(Cc3cccc(F)c3)C2)CC1 (stereo not drawn),7.11
20,COc1ccc(CN2CCN(c3ccccc3)CC2)c(C)c1C,-5.87
21,CCOC(=O)CCC(NC(=O)CCCCCCCCC(=O)NC(CCC(=O)OCC)C(=O)OCC)C(=O)OCC (stereo not drawn),9.55

# From PMC4336329 (PLoS ONE, 2015)
